The source of these data is patent US20110206658A1 (published 2011).

The experiment concerns the target T1, human CD79b (TAHO5) (human, UniProt P40259 29-229).
T1 sequence: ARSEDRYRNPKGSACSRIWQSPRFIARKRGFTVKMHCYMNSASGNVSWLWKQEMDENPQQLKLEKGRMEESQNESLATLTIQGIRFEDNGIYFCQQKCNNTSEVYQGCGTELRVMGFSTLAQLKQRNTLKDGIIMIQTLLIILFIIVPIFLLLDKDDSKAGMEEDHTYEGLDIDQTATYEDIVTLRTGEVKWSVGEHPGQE
Description: cell-based or functional assay.

B1: anti-human CD79b (SN8)-SMCC-DM1 (antibody)
VH: EVQLQQSGAELMKPGASVKISCKATGYTFSSYWIEWVKQRPGHGLEWIGEILPGGGDTNYNEIFKGKATFTADTSSNTAYMQLSSLTSEDSAVYYCTRRVPVYFDYWGQGTSVTVSS[human IgG1 constant region omitted here]
VL: DIVLTQSPASLAVSLGQRATISCKASQSVDYDGDSFLNWYQQKPGQPPKLFIYAASNLESGIPARFSGSGSGTDFTLNIHPVEEEDAATYYCQQSNEDPLTFGAGTELELKRTVAAPSVFIFPPSDEQLKSGTASVVCLLNNFYPREAKVQWKVDNALQSGNSQESVTEQDSKDSTYSLSSTLTLSKADYEKHKVYACEVTHQGLSSPVTKSFNRGEC
modifications: DM1 linked through SMCC to the epsilon-amino group of lysines; drug to antibody ratio typically 3 to 4
Take B1: the “IC50 of tumor cell killing (CellTiter-Glo), non-transfected BJAB cells” value is 0.4 nM.

B2: anti-human CD79b (SN8)-MC-MMAF (antibody)
VH: EVQLQQSGAELMKPGASVKISCKATGYTFSSYWIEWVKQRPGHGLEWIGEILPGGGDTNYNEIFKGKATFTADTSSNTAYMQLSSLTSEDSAVYYCTRRVPVYFDYWGQGTSVTVSS[human IgG1 constant region omitted here]
VL: DIVLTQSPASLAVSLGQRATISCKASQSVDYDGDSFLNWYQQKPGQPPKLFIYAASNLESGIPARFSGSGSGTDFTLNIHPVEEEDAATYYCQQSNEDPLTFGAGTELELKRTVAAPSVFIFPPSDEQLKSGTASVVCLLNNFYPREAKVQWKVDNALQSGNSQESVTEQDSKDSTYSLSSTLTLSKADYEKHKVYACEVTHQGLSSPVTKSFNRGEC
modifications: MMAF linked through the cysteine by the maleimidocaproyl (MC) linker; sites and load not stated
Turning to B2, the “IC50 of tumor cell killing (CellTiter-Glo), BJAB-cyno CD79b cells” value came out at 0.6 nM and the “IC50 of tumor cell killing (CellTiter-Glo), non-transfected BJAB cells” value came out at 0.2 nM.
